Source: article PMC6919601, “Identification of Plasmodium dipeptidyl aminopeptidase allosteric inhibitors by high throughput screening” (PLoS ONE, 2019)
The campaign covered roughly 110,000 compounds. About 230 (0.21%) showed an effect of 50% or more. This is one part of the list.

molecular target: DPAP1 (Plasmodium falciparum, UniProt Q8IIJ9); experiment: primary screen, percent inhibition; read by cleavage of a fluorogenic dipeptide substrate; higher = more effect of the substance; parameters: species or system P. falciparum D10 trophozoite lysates; single well
Sequence (Q8IIJ9 whole entry, looked up): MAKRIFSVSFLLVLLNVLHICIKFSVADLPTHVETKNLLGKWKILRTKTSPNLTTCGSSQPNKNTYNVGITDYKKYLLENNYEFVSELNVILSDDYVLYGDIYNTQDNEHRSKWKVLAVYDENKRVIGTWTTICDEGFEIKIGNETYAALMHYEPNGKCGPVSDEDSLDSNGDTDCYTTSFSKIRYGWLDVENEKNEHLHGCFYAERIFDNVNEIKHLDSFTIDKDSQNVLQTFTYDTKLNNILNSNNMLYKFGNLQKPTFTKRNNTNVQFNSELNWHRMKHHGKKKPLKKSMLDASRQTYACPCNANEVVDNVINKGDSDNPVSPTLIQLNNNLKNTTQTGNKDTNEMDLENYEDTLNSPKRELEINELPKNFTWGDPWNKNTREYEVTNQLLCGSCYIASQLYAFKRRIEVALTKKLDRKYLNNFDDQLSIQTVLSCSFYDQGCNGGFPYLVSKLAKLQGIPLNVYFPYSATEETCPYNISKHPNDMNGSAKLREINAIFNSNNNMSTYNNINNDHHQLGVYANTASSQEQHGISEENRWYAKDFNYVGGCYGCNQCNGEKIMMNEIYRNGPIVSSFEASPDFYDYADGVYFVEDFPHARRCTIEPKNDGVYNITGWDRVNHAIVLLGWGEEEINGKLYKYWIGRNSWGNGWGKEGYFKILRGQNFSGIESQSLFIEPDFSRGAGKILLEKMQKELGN
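Note: 30 min substrate incubation versus DMSO and 10 µM JCP410 controls.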

Compound | % Inhibition @ 10 uM [%]
CCN(CCCNC(=O)C1CCN(S(=O)(=O)c2cccc3nonc23)CC1)Cc1ccccc1 | -0.0508
CCc1cc(CC#N)c(S(=O)(=O)CC)s1 | -2.62
COc1ccc(CN2CCN(Cc3cc(OC)ccc3OC)CC2)cc1 | 2.37
Cc1cc(/C=C2\SC(=O)N(CC(=O)O)C2=O)c(C)n1-c1ccc(C(C)(C)C)cc1 | -3.41
S=C1C=C(c2ccccc2)Sc2ccccc2N1 | -1.43
Cc1cc(OCC(=O)O)cc(C)c1Cl | 4.1
O=C(CCCCN1CCCCC1)Nc1nc(-c2ccccc2)cs1 | -4.24
C/C(CCC1CC(C)OC1=O)=N\NC(N)=S (stereo not drawn) | -1.6
CCNC(=O)/C(=C\c1ccc2c(c1)OCO2)NC(=O)c1ccccc1Cl | -0.941
O=C(CSc1nc2c(c(=O)n1Cc1ccccc1)SCC2)N1CCOCC1 | 0.842
Cc1nc([N+](=O)[O-])cn1-c1cccc(O)c1 | -5.68
COc1ccc2nc(O)c3c(c2c1)OC(C)(C)C=C3 | -2.42
CN(Cc1ccccc1)Cc1ccc(O)cc1 | -1.78
O[C@]12CCCC[C@@H]1[C@@H](c1ccccc1Cl)NCC2 | 4.73
Cc1cc(-c2ccc(C)c(S(=O)(=O)N(Cc3ccccc3)C(C)(C)C)c2)on1 | -5.5
COc1cc(S(=O)(=O)Nc2ccccn2)ccc1Br | 3.36
CC(=O)c1cccc(NC(=O)c2cnn(-c3ccccc3)c2-c2ccccc2)c1 | -3.71
CCOC(=O)N1CCC(N2CCN(c3ccc(OC)cc3)CC2)CC1 | 3.48
CC(CCNS(=O)(=O)c1csc(C(N)=O)c1)N1CCCCCC1 (stereo not drawn) | 0.00978
Cc1nc2sccn2c(=O)c1S(=O)(=O)NCCN1CCOCC1 | -0.822
O=C(CN(c1ccc(F)cc1)S(=O)(=O)c1ccc2c(c1)OCCO2)NCc1cccnc1 | -1.51
COc1ccc(Cc2nnc(NCc3ccco3)nc2O)cc1 | -2.04
COc1cc2c(cc1OC)C(c1ccc3c(c1)OCO3)CC(=O)N2 (stereo not drawn) | 1.72
CNCCOC(c1ccccc1)c1ccccc1C(C)(C)C (stereo not drawn) | -3.77
CCOc1cccc(C2c3c(oc4ccccc4c3=O)C(=O)N2c2ccccn2)c1 (stereo not drawn) | -5.54
Cc1nn(-c2ccccc2)c(O)c1/C=N/C1CCCCC1 | 0.685

Compound | % Inhibition @ 10 uM [%]
O=C(Nc1nonc1N1C(=O)c2ccccc2C1=O)c1ccccc1Cl | -3.75
CCOC(=O)c1cnn2c1NC(c1ccc(Cl)cc1)CC2C(F)(F)F (stereo not drawn) | 3.35
C=CCN1C(=O)N/C(=C/c2cn(Cc3ccccc3F)c3ccccc23)C1=O | 3.9
c1ccc(-c2nnc3sc(-c4ccco4)nn23)cc1 | 3.38
COc1cccc(CN2CCN(c3cccc(Cl)c3)CC2)c1 | 2.47
CCOC(=O)C1=C(CS(=O)(=O)c2ccc(F)cc2)NC(=O)NC1c1ccc(OC)cc1OC (stereo not drawn) | 5.92
O=[N+]([O-])c1ccc2c3c(cccc13)C(=S)N2 | 2.6
COc1ccc(-c2noc(NCCCN3C(C)CCCC3C)n2)cc1OC (stereo not drawn) | 4.83
COc1ccc(OC)c(CNC(=O)C2CCCN(S(=O)(=O)N3CC(C)CC(C)C3)C2)c1 (stereo not drawn) | 6.86
O=C1c2ccc([N+](=O)[O-])cc2C(=O)N1c1ccc([N+](=O)[O-])cn1 | -0.0217
NC(=O)c1nn(-c2ccccc2)nc1NC(=O)COc1ccccc1F | 14.6
COc1ccc(S(=O)(=O)N2CCN(C)CC2)cc1OC | -3.86
Cc1ccc2oc(C(=O)Nc3cccnc3)cc(=O)c2c1 | 5.06
C=CCn1c(Oc2ccc(F)cc2)nc2c1c(=O)n(C)c(=O)n2C | 5.15
CCOC(=O)N1CCN(C(=O)CN(c2ccc(F)cc2)S(C)(=O)=O)CC1 | -2.46
CCOC(=O)c1c(-c2ccc(OC)cc2)csc1/N=C/C1C(=O)c2ccccc2C1=O | 0.408
CC(=O)NC(Cc1ccccc1)c1nc2ccccc2n1Cc1ccccc1C (stereo not drawn) | -5.77
CSc1ccc(CN(C)CCN(C)C)cc1 | 0.815
CSc1nc(N)c(C#N)c(-c2ccc(C(C)C)cc2)c1C#N | 2.05
O=C(CN1CCCCC1)N1CCCc2c1c(=O)oc1ccc(OCc3ccccc3)cc21 | 1.52
O=C(CCC(=O)Nc1ccc2c(c1)OCCO2)Nc1ccc2c(c1)OCCO2 | -3.26
Cc1cc(Nc2ccc(Cl)cc2)nc2ccccc12 | -3.74
COc1cc(NC(=O)CC2NC3CCCCC3NC2=O)cc(OC)c1 (stereo not drawn) | 4.11
COC(=O)c1ccc(/C=c2/sc3nc(=O)c(-c4ccccc4)nn3c2=O)cc1 | -4.84
CCC(C(=O)NCCC(C)C)n1ccc2cc(S(=O)(=O)N3CCCCC3)ccc21 (stereo not drawn) | 1.28
